# Source: the supplement of paper PMC12230231
# System: SIVsab (simian immunodeficiency virus of sabaeus monkeys), single-cycle GFP reporter, in CRFK cells
# Assay: enrichment among uninfected cells over input (fold); higher = stronger restriction
# Conditions: library: human / rhesus combinations
# Description: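 Pools of CRFK cells expressing variants of the TRIM5α v1 loop were challenged with the single-cycle reporter, sorted by GFP and sequenced; mean of two replicates.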
row,Sequence,enrichment
1,"MASGILVNVKEEVTCPICLELLTQPLSLDCGHSFCQACLTANHKKSMLDKGESSCPVCRISYQPENIRPNRHVANIVEKLREVKLSPEGQKVDHCARHGEKLLLFCQEDGKVICWLCERSQEHRGHHTFLTEEVAREYQVKLQAALEMLRQKQQEAEELEADIREEKASWKTQIQYDKTNVLADFEQLRDILDWEESNELQNLEKEEEDILKSLTNSETEMVQQTQSLRELISDLEHRLQGSVMELLQGVDGVIKRTENVTLKKPETFPKNQRRVFRAPDLKGMLEVFRELTDVRRYWVDVTVAPNNISCAVISEDKRQVSSPKPQIIYQARGTRFPTFVNFNYCTGILGSQSITSGKHYWEVDVSKKTAWILGVCAGFQPDAMCNIEKNENYQPKYGYWVIGLEEGVKCSAFQDSSFHTPSVPFIVPLSVIICPDRVGVFLDYEACTVSFFNITNHGFLIYKFSHCSFSQPVFPYLNPRKCGVPMTLCSPSS [human TRIM5α, 330-340 = QARGTRFPTFV]",0.00105 ± 0.00069
2,"MASGILVNVKEEVTCPICLELLTQPLSLDCGHSFCQACLTANHKKSMLDKGESSCPVCRISYQPENIRPNRHVANIVEKLREVKLSPEGQKVDHCARHGEKLLLFCQEDGKVICWLCERSQEHRGHHTFLTEEVAREYQVKLQAALEMLRQKQQEAEELEADIREEKASWKTQIQYDKTNVLADFEQLRDILDWEESNELQNLEKEEEDILKSLTNSETEMVQQTQSLRELISDLEHRLQGSVMELLQGVDGVIKRTENVTLKKPETFPKNQRRVFRAPDLKGMLEVFRELTDVRRYWVDVTVAPNNISCAVISEDKRQVSSPKPQIIYQARGTLYTFQSLVNFNYCTGILGSQSITSGKHYWEVDVSKKTAWILGVCAGFQPDAMCNIEKNENYQPKYGYWVIGLEEGVKCSAFQDSSFHTPSVPFIVPLSVIICPDRVGVFLDYEACTVSFFNITNHGFLIYKFSHCSFSQPVFPYLNPRKCGVPMTLCSPSS [human TRIM5α, 330-340 = QARGTLYTFQSLV]",0.214 ± 0.035
3,"MASGILVNVKEEVTCPICLELLTQPLSLDCGHSFCQACLTANHKKSMLDKGESSCPVCRISYQPENIRPNRHVANIVEKLREVKLSPEGQKVDHCARHGEKLLLFCQEDGKVICWLCERSQEHRGHHTFLTEEVAREYQVKLQAALEMLRQKQQEAEELEADIREEKASWKTQIQYDKTNVLADFEQLRDILDWEESNELQNLEKEEEDILKSLTNSETEMVQQTQSLRELISDLEHRLQGSVMELLQGVDGVIKRTENVTLKKPETFPKNQRRVFRAPDLKGMLEVFRELTDVRRYWVDVTVAPNNISCAVISEDKRQVSSPKPQIIYQAPGTLYTFQSFTNFNYCTGILGSQSITSGKHYWEVDVSKKTAWILGVCAGFQPDAMCNIEKNENYQPKYGYWVIGLEEGVKCSAFQDSSFHTPSVPFIVPLSVIICPDRVGVFLDYEACTVSFFNITNHGFLIYKFSHCSFSQPVFPYLNPRKCGVPMTLCSPSS [human TRIM5α, 330-340 = QAPGTLYTFQSFT]",0.128 ± 0.04
4,"MASGILVNVKEEVTCPICLELLTQPLSLDCGHSFCQACLTANHKKSMLDKGESSCPVCRISYQPENIRPNRHVANIVEKLREVKLSPEGQKVDHCARHGEKLLLFCQEDGKVICWLCERSQEHRGHHTFLTEEVAREYQVKLQAALEMLRQKQQEAEELEADIREEKASWKTQIQYDKTNVLADFEQLRDILDWEESNELQNLEKEEEDILKSLTNSETEMVQQTQSLRELISDLEHRLQGSVMELLQGVDGVIKRTENVTLKKPETFPKNQRRVFRAPDLKGMLEVFRELTDVRRYWVDVTVAPNNISCAVISEDKRQVSSPKPQIIYGAPGTRYTFQTLVNFNYCTGILGSQSITSGKHYWEVDVSKKTAWILGVCAGFQPDAMCNIEKNENYQPKYGYWVIGLEEGVKCSAFQDSSFHTPSVPFIVPLSVIICPDRVGVFLDYEACTVSFFNITNHGFLIYKFSHCSFSQPVFPYLNPRKCGVPMTLCSPSS [human TRIM5α, 330-340 = GAPGTRYTFQTLV]",0.491 ± 0.055
5,"MASGILVNVKEEVTCPICLELLTQPLSLDCGHSFCQACLTANHKKSMLDKGESSCPVCRISYQPENIRPNRHVANIVEKLREVKLSPEGQKVDHCARHGEKLLLFCQEDGKVICWLCERSQEHRGHHTFLTEEVAREYQVKLQAALEMLRQKQQEAEELEADIREEKASWKTQIQYDKTNVLADFEQLRDILDWEESNELQNLEKEEEDILKSLTNSETEMVQQTQSLRELISDLEHRLQGSVMELLQGVDGVIKRTENVTLKKPETFPKNQRRVFRAPDLKGMLEVFRELTDVRRYWVDVTVAPNNISCAVISEDKRQVSSPKPQIIYQAPGTRYTFQSFVNFNYCTGILGSQSITSGKHYWEVDVSKKTAWILGVCAGFQPDAMCNIEKNENYQPKYGYWVIGLEEGVKCSAFQDSSFHTPSVPFIVPLSVIICPDRVGVFLDYEACTVSFFNITNHGFLIYKFSHCSFSQPVFPYLNPRKCGVPMTLCSPSS [human TRIM5α, 330-340 = QAPGTRYTFQSFV]",0.124 ± 0.033
6,"MASGILVNVKEEVTCPICLELLTQPLSLDCGHSFCQACLTANHKKSMLDKGESSCPVCRISYQPENIRPNRHVANIVEKLREVKLSPEGQKVDHCARHGEKLLLFCQEDGKVICWLCERSQEHRGHHTFLTEEVAREYQVKLQAALEMLRQKQQEAEELEADIREEKASWKTQIQYDKTNVLADFEQLRDILDWEESNELQNLEKEEEDILKSLTNSETEMVQQTQSLRELISDLEHRLQGSVMELLQGVDGVIKRTENVTLKKPETFPKNQRRVFRAPDLKGMLEVFRELTDVRRYWVDVTVAPNNISCAVISEDKRQVSSPKPQIIYGAPGTLYTFPTFVNFNYCTGILGSQSITSGKHYWEVDVSKKTAWILGVCAGFQPDAMCNIEKNENYQPKYGYWVIGLEEGVKCSAFQDSSFHTPSVPFIVPLSVIICPDRVGVFLDYEACTVSFFNITNHGFLIYKFSHCSFSQPVFPYLNPRKCGVPMTLCSPSS [human TRIM5α, 330-340 = GAPGTLYTFPTFV]",0.43 ± 0.027

# Same assay, conditions: library: insertions and deletions
row,Sequence,enrichment
1,"MASGILVNVKEEVTCPICLELLTQPLSLDCGHSFCQACLTANHKKSMLDKGESSCPVCRISYQPENIRPNRHVANIVEKLREVKLSPEGQKVDHCARHGEKLLLFCQEDGKVICWLCERSQEHRGHHTFLTEEVAREYQVKLQAALEMLRQKQQEAEELEADIREEKASWKTQIQYDKTNVLADFEQLRDILDWEESNELQNLEKEEEDILKSLTNSETEMVQQTQSLRELISDLEHRLQGSVMELLQGVDGVIKRTENVTLKKPETFPKNQRRVFRAPDLKGMLEVFRELTDVRRYWVDVTVAPNNISCAVISEDKRQVSSPKPQIIYGARGTRYQTFVNFNYQTFVNFNYCTGILGSQSITSGKHYWEVDVSKKTAWILGVCAGFQPDAMCNIEKNENYQPKYGYWVIGLEEGVKCSAFQDSSFHTPSVPFIVPLSVIICPDRVGVFLDYEACTVSFFNITNHGFLIYKFSHCSFSQPVFPYLNPRKCGVPMTLCSPSS [human TRIM5α, 8-codon duplication at 336]",0.421 ± 0.2
2,"MASGILVNVKEEVTCPICLELLTQPLSLDCGHSFCQACLTANHKKSMLDKGESSCPVCRISYQPENIRPNRHVANIVEKLREVKLSPEGQKVDHCARHGEKLLLFCQEDGKVICWLCERSQEHRGHHTFLTEEVAREYQVKLQAALEMLRQKQQEAEELEADIREEKASWKTQIQYDKTNVLADFEQLRDILDWEESNELQNLEKEEEDILKSLTNSETEMVQQTQSLRELISDLEHRLQGSVMELLQGVDGVIKRTENVTLKKPETFPKNQRRVFRAPDLKGMLEVFRELTDVRRYWVDVTVAPNNISCAVISEDKRQVSSPKPQIIPQIIYGARGTRYQTFVNFNYCTGILGSQSITSGKHYWEVDVSKKTAWILGVCAGFQPDAMCNIEKNENYQPKYGYWVIGLEEGVKCSAFQDSSFHTPSVPFIVPLSVIICPDRVGVFLDYEACTVSFFNITNHGFLIYKFSHCSFSQPVFPYLNPRKCGVPMTLCSPSS [human TRIM5α, 4-codon duplication at 325]",1.61 ± 0.11
3,"MASGILVNVKEEVTCPICLELLTQPLSLDCGHSFCQACLTANHKKSMLDKGESSCPVCRISYQPENIRPNRHVANIVEKLREVKLSPEGQKVDHCARHGEKLLLFCQEDGKVICWLCERSQEHRGHHTFLTEEVAREYQVKLQAALEMLRQKQQEAEELEADIREEKASWKTQIQYDKTNVLADFEQLRDILDWEESNELQNLEKEEEDILKSLTNSETEMVQQTQSLRELISDLEHRLQGSVMELLQGVDGVIKRTENVTLKKPETFPKNQRRVFRAPDLKGMLEVFRELTDVRRYWVDVTVAPNNISCAVISEDKRQVSSPKPQIIYGARGTRYQTFVNYCTGILGSQSITSGKHYWEVDVSKKTAWILGVCAGFQPDAMCNIEKNENYQPKYGYWVIGLEEGVKCSAFQDSSFHTPSVPFIVPLSVIICPDRVGVFLDYEACTVSFFNITNHGFLIYKFSHCSFSQPVFPYLNPRKCGVPMTLCSPSS [human TRIM5α, 2-codon deletion at 341]",0.313 ± 0.12
4,"MASGILVNVKEEVTCPICLELLTQPLSLDCGHSFCQACLTANHKKSMLDKGESSCPVCRISYQPENIRPNRHVANIVEKLREVKLSPEGQKVDHCARHGEKLLLFCQEDGKVICWLCERSQEHRGHHTFLTEEVAREYQVKLQAALEMLRQKQQEAEELEADIREEKASWKTQIQYDKTNVLADFEQLRDILDWEESNELQNLEKEEEDILKSLTNSETEMVQQTQSLRELISDLEHRLQGSVMELLQGVDGVIKRTENVTLKKPETFPKNQRRVFRAPDLKGMLEVFRELTDVRRYWVDVTVAPNNISCAVISEDKRQVSSPKPQIIYGARGTIIYGARGTRYQTFVNFNYCTGILGSQSITSGKHYWEVDVSKKTAWILGVCAGFQPDAMCNIEKNENYQPKYGYWVIGLEEGVKCSAFQDSSFHTPSVPFIVPLSVIICPDRVGVFLDYEACTVSFFNITNHGFLIYKFSHCSFSQPVFPYLNPRKCGVPMTLCSPSS [human TRIM5α, 8-codon duplication at 327]",0.496 ± 0.29
5,"MASGILVNVKEEVTCPICLELLTQPLSLDCGHSFCQACLTANHKKSMLDKGESSCPVCRISYQPENIRPNRHVANIVEKLREVKLSPEGQKVDHCARHGEKLLLFCQEDGKVICWLCERSQEHRGHHTFLTEEVAREYQVKLQAALEMLRQKQQEAEELEADIREEKASWKTQIQYDKTNVLADFEQLRDILDWEESNELQNLEKEEEDILKSLTNSETEMVQQTQSLRELISDLEHRLQGSVMELLQGVDGVIKRTENVTLKKPETFPKNQRRVFRAPDLKGMLEVFRELTDVRRYWVDVTVAPNNISCAVISEDKRQVSSPKPQIIYGARGTRYQTFVNFNYVNFNYCTGILGSQSITSGKHYWEVDVSKKTAWILGVCAGFQPDAMCNIEKNENYQPKYGYWVIGLEEGVKCSAFQDSSFHTPSVPFIVPLSVIICPDRVGVFLDYEACTVSFFNITNHGFLIYKFSHCSFSQPVFPYLNPRKCGVPMTLCSPSS [human TRIM5α, 5-codon duplication at 340]",0.61 ± 0.52
6,"MASGILVNVKEEVTCPICLELLTQPLSLDCGHSFCQACLTANHKKSMLDKGESSCPVCRISYQPENIRPNRHVANIVEKLREVKLSPEGQKVDHCARHGEKLLLFCQEDGKVICWLCERSQEHRGHHTFLTEEVAREYQVKLQAALEMLRQKQQEAEELEADIREEKASWKTQIQYDKTNVLADFEQLRDILDWEESNELQNLEKEEEDILKSLTNSETEMVQQTQSLRELISDLEHRLQGSVMELLQGVDGVIKRTENVTLKKPETFPKNQRRVFRAPDLKGMLEVFRELTDVRRYWVDVTVAPNNISCAVISEDKRQVSSPKPQIIYGARGTRYQTTRYQTFVNFNYCTGILGSQSITSGKHYWEVDVSKKTAWILGVCAGFQPDAMCNIEKNENYQPKYGYWVIGLEEGVKCSAFQDSSFHTPSVPFIVPLSVIICPDRVGVFLDYEACTVSFFNITNHGFLIYKFSHCSFSQPVFPYLNPRKCGVPMTLCSPSS [human TRIM5α, 5-codon duplication at 334]",0.765 ± 0.36

# ± gives the standard deviation of the averaged measurements. Restriction of a single-cycle SIVsab GFP reporter by TRIM5α v1-loop variants in CRFK cells. Human variants: read share among cells still uninfected after two challenges over input, higher = gained restriction. Rhesus variants: share among infected cells over input, higher = lost restriction. Reporter dose not given per row. No active / inactive call per row; the paper calls a change when both replicates lie above its controls (mean + 2 SD of stop or wild-type variants, or the top frameshift score). Residues outside the varied loop are taken from Swiss-Prot. The paper reads the human single-substitution scores as noise; they and the rhesus combinations repeat poorly (rank correlation 0.3 to 0.4), indel scores repeat only for the top variants, rhesus substitutions well (0.9).
